In PMC4336329 (PLoS ONE, 2015):
About 2,200 (0.71%) of roughly 310,000 compounds showed an effect of 50% or more. Effects have a minus sign here. This is one part of the list.

Target: human ether-à-go-go-related gene (hERG) potassium channel (human, UniProt Q12809)
Test: primary screen, population patch clamp on CHO cells stably expressing hERG

Sequence of human ether-à-go-go-related gene (hERG) potassium channel (Q12809 whole entry, looked up): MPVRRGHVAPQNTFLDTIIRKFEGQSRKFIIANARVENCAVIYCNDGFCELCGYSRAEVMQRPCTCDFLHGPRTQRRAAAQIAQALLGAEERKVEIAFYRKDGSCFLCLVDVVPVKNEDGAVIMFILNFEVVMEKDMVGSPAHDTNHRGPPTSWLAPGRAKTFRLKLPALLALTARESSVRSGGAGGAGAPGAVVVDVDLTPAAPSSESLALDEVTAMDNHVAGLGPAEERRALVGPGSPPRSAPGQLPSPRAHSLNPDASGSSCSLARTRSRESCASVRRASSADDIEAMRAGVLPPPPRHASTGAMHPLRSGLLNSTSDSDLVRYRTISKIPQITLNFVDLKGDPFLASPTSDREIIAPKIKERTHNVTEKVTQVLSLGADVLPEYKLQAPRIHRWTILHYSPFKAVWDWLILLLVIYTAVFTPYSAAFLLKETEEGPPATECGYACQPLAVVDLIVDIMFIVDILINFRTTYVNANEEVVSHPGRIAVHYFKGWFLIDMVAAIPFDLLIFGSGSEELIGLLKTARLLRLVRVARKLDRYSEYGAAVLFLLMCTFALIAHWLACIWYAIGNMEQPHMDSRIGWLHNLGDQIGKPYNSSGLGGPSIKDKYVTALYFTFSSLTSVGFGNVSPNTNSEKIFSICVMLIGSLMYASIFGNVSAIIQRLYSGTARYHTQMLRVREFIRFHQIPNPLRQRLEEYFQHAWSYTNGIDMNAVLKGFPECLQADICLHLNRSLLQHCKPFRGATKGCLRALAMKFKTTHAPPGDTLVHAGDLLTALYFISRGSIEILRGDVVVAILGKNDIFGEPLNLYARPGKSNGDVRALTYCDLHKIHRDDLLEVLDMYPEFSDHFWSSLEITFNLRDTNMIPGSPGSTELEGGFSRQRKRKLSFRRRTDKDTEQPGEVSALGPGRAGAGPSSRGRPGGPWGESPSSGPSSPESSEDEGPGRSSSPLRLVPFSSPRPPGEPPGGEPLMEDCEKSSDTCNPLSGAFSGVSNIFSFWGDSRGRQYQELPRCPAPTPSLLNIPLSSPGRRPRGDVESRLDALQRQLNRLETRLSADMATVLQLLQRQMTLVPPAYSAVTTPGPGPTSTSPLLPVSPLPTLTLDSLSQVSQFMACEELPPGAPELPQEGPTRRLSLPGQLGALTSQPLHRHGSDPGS

Row | SMILES | hERG current change (%, negative = inhibition) at 1uM
1 | O=C(Cc1ccccc1)NCC(=O)OCC(=O)c1ccc(F)cc1 | -2.39%
2 | CC(C)(C)c1ccc(C(=O)NNC(=O)C2CCCCC2)cc1 | 10.1%
3 | C#CCNC(=O)C1=C[C@@H](c2csc3ccccc23)[C@H](CCCO)[C@@H](OCC)O1 | -11.2%
4 | COc1ccc(NC(=S)N(CCc2c(C)[nH]c3ccccc23)Cc2cccnc2)cc1 | 5.87%
5 | CC(=O)OCc1nc2sc3c(c2c(=O)[nH]1)CCCC3 | 11.1%
6 | COC(=O)[C@H]1[C@H]2C[C@@H]3c4[nH]c5cc(OC)ccc5c4CCN3C[C@H]2C[C@@H](OC(=O)/C=C/c2cc(OC)c(OC)c(OC)c2)[C@@H]1OC | 7.37%
7 | CCc1cc(/C(Cc2ccc3ccccc3n2)=N\O)c(O)cc1O | 9.16%
8 | C=CCN1C2CCCC1CC(NC(=O)Nc1cc(C)cc(C)c1)C2 (centres unmarked) | -26.1%
9 | COc1ccc(-c2nnc(SCC(=O)c3ccc4c(c3)OCCO4)o2)cc1 | -1.64%
10 | Cc1ccc(S(=O)(=O)N2[C@@H](c3ccc(Cl)cc3)C(C(=O)O)=CC[C@H]2c2ccc(C(C)C)cc2)cc1 | -11.1%
11 | COc1ccc(C2NC(=O)NC(C)=C2C(=O)Nc2cccc(C)c2C)cc1 (centres unmarked) | 3.18%
12 | COc1ccc(CCNc2cc(=O)[nH]c(N)n2)cc1 | -1.01%
13 | COc1cc2c(cc1OC)CN(C(=O)c1ccc(OC)c([N+](=O)[O-])c1)CC2 | 13%
14 | COc1ccc(CCNCC(=O)Nc2ccccc2C(F)(F)F)cc1.O=C(O)C(=O)O | 10.7%
15 | Cc1cccc(NC(=O)Cn2c(=O)oc3ccccc32)c1C | 12.8%
16 | O=C(Cc1ccc(Cl)cc1)NN1C(=O)c2ccccc2C1=O | 8.79%
17 | COc1ccc(C(CC(=O)N2CCCC(C)C2)c2c(OC)cc(OC)c3c(-c4ccccc4)cc(=O)oc23)cc1 (centres unmarked) | 7.43%
18 | Cn1cc(CN(Cc2ccccn2)C[C@@H]2CCC(=O)N2)c(-c2ccccc2F)n1 | 12.1%
19 | CC(C)(C)N1C(=O)c2ccc(C(=O)Nc3ccc(C(=O)O)cc3)cc2C1=O | 10.2%
20 | Cc1cc(Br)c(OCc2ccc(C(=O)N/N=C3\CC(=O)CC(C)(C)C3)cc2)c(Br)c1 | 15.5%
21 | O=C1CC(NS(=O)(=O)c2cccnc2)CN1c1ccc(F)cc1 (centres unmarked) | 2.92%

Row | SMILES | hERG current change (%, negative = inhibition) at 1uM
22 | Cc1nc2ccc(Cc3ccc4nc(C)[nH]c4c3)cc2[nH]1 | 10.1%
23 | CC1(c2ccc3ccccc3c2)NC(=O)NC1=O (centres unmarked) | 13.2%
24 | C=CCCCCCCCCC(=O)N1CCN(c2cc3c(cc2F)c(=O)c(C(=O)O)cn3CC)CC1 | 7.08%
25 | CC(=NCc1cccnc1)c1c(O)n(-c2ccccc2C)c(=O)[nH]c1=O | -2.41%
26 | CCN(CC)C(=O)Cn1cc(/C=C(\C#N)C(=O)N2CCN(c3ccccc3)CC2)c2ccccc21 | -1.66%
27 | CC(C)Cn1c(N)c(C(=O)COC(=O)c2ccncc2)c(=O)n(C)c1=O | 7.31%
28 | COc1ccc(-c2cc3n(n2)CCc2nc4ccccc4n2-3)cc1 | 16.5%
29 | Cc1nc(SCC(=O)Nc2c(C)n(C)n(-c3ccccc3)c2=O)nc(C)c1C | -0.752%
30 | CC(c1ccon1)N(C)Cc1cn(C)nc1-c1ccc2c(c1)OCCO2 (centres unmarked) | 10.4%
31 | COc1ccc(C(=O)Nc2ccc3c(c2)nc(CN2CCN(C(C)=O)CC2)n3C)cc1 | 10.4%
32 | O=C(NCCCN1CCc2ccccc2C1)C1CCN(S(=O)(=O)N2CCC3(CC2)OCCO3)CC1 | -1.92%
33 | Cc1nnc(SCC(=O)NN2C(=O)NC3(CCCCC3)C2=O)s1 | 11%
34 | CCOC(=O)CNC(=S)n1ncnc1N | 5.41%
35 | Cc1ccc(C(=O)N/C(=C\c2ccco2)C(=O)N2CC(C)OC(C)C2)cc1C (centres unmarked) | 3.54%
36 | COc1cc(/C=N/Nc2nc(=O)[nH]nc2C)ccc1O | 7.08%
37 | Cc1cccc(N2CCN(C(=O)c3ccc4nc(-c5ccco5)c(-c5ccco5)nc4c3)CC2C)c1 (centres unmarked) | 8.47%
38 | CCCCCOC(=O)CSc1nc2c(c(=O)[nH]c(=O)n2C)n1CCc1ccccc1 | 12.6%
39 | Cc1ccccc1C(=O)c1cccn1CC(=O)NCCCN1CCCCC1 | 0.894%
40 | Cc1ccc(S(=O)(=O)CCC(=O)OCC(=O)N2CCN(S(=O)(=O)c3ccc(Cl)cc3)CC2)cc1 | 1.35%
41 | COc1cccc(C(=O)C2CCCN(Cc3cccc(C)n3)C2)c1 (centres unmarked) | -30.1%
42 | O=C1CN=C(c2ccc(Br)cc2)c2c(sc3c2CCCC3)N1CCN1CCCCC1 | -3.22%

Row | SMILES | hERG current change (%, negative = inhibition) at 1uM
43 | CSc1nc(N)nc(SCCS(=O)(=O)c2ccc(Cl)cc2)c1C#N | 3.68%
44 | COc1ccc(-c2cc(C(=O)NCCN3CCOCC3)c3cc(C(C)C)ccc3n2)cc1 | 22.1%
45 | COc1ccc(N2CCc3c(C)nc4c(OC)cc(OC)cc4c32)c(OC)c1 | -47.6%
46 | COc1ccccc1NC(=O)CSc1nncn1N | 8.74%
47 | O=S(=O)(Nc1ccccn1)c1ccc(C(F)(F)F)cc1Cl | 15.2%
48 | CCCn1c(SCC(=O)N2CCN(c3ccccc3)CC2)nc2ccccc2c1=O | -4.8%
49 | COC(=O)NC1CSCC1OC(=O)c1ccc(Br)cc1 (centres unmarked) | -5.41%
50 | CCn1c(CNC(=O)COC)nc2ccccc21 | 1.78%
51 | O=[N+]([O-])c1cc(C(F)(F)F)cc([N+](=O)[O-])c1NCc1cccnc1 | -4.94%
52 | Cc1ccc2oc(=O)c3cnn(CC(=O)NC4CCCCC4C)c3c2c1 (centres unmarked) | 5.74%
53 | COc1ccc(-c2ccc(Nc3ccc(C(=O)N4CCOCC4)cc3)nn2)cc1OC | 15.5%
54 | Cc1ccc2oc3c(c(=O)c2c1)C(c1cccc(Cl)c1)N(CCCN1CCOCC1)C3=O (centres unmarked) | -18.4%
55 | COc1ccc(/C=C/C(=O)OCC(=O)c2ccc(S(=O)(=O)N3CCCCC3)cc2)cc1OC | 12.6%
56 | CCn1cc(/C=N\NC(=O)c2c[nH]c3ccccc23)c(C)n1 | 4.79%
57 | CN(C)c1ccc(-c2cccc(C3CC=CC4C3C(=O)N(Cc3ccccc3)C4c3ccc4ccccc4c3)c2)cc1 (centres unmarked) | 14.6%
58 | CCS(=O)(=O)N1CCN(C(=O)c2ccccc2)CC1 | 7.27%
59 | CC[C@H](C)[C@H](NS(=O)(=O)c1ccc(C)cc1)C(=O)N1CCC(C(=O)N[C@@H](C)C(=O)O)CC1 | 13.9%
60 | C[N+]1(CCNC(=O)/C=N/O)CCCCC1.[I-] | 13.3%
61 | Cc1cc(C)c2c(=O)[nH]n(C3CCCCCC3)c2n1 | 4.6%
62 | CN(C)C(/C=C/Nc1ccc(O)cc1)=C(C#N)C#N | 18.1%
63 | Cc1ccc(CSc2nnc3nc(C)cc(C)n23)cc1 | -2.19%

Row | SMILES | hERG current change (%, negative = inhibition) at 1uM
64 | Cc1ccc(Cn2nc3c(cc2=O)CCc2ccccc2-3)cc1 | 10.2%
65 | CC(=O)c1ccc(NC(=O)/C=C/c2ccc(C)cc2)cc1 | 7.02%
66 | COc1ccc(CCN(Cc2cccs2)S(=O)(=O)c2ccc(S(=O)(=O)N3CCCCCC3)cc2)cc1OC | 15.6%
67 | CCC1(CC)C(=O)C2=C3C1[C@H](C(=O)OC)CC(C(=O)OC)C[C@H]3n1c(=O)n(-c3ccccc3)c(=O)n1[C@H]2C (some centres unmarked) | 11.1%
68 | COc1ccc(OC)c(/C=C/C(=O)c2ccc3c(c2)OCCO3)c1 | 9.4%
69 | COc1ccc(NS(=O)(=O)c2cccc(C(=O)NNC(=O)CNC(=O)c3cccc(C)c3)c2)cc1 | 2.98%
70 | CC(=O)c1ccc(NC(=O)C(C)n2nc(-c3ccccc3)c3cc(Cl)ccc32)cc1 (centres unmarked) | 4.55%
71 | C=C[C@H]1CN2CC[C@H]1C[C@@H]2[C@@H](O)c1ccnc2ccccc12 | -4.99%
72 | CC(C)Cc1nc2oc3c(=O)[nH]cnc3c2c2c1CCC2 | 0.411%
73 | O=C(CSc1nnc(-c2ccco2)n1-c1ccccc1)NCc1ccc2c(c1)OCO2 | -47.7%
74 | CN(c1ccccc1)S(=O)(=O)c1cccc(C(=O)Nc2ccc3c(c2)CCC3)c1 | 11.2%
75 | O=S(=O)(c1ccc(N2CCOCC2)nc1)N(Cc1ccccn1)Cc1ccccn1 | 6.77%
76 | CSc1nc2ccsc2c(=O)n1-c1cccnc1 | 0.288%
77 | O=C(CCc1ccc(O)c(O)c1)NNC(=S)Nc1ccc(Br)cc1Cl | 10.7%
78 | CCOc1ccc(NC(=S)NC(=O)/C=C/c2ccc(OC)c(OC)c2)c([N+](=O)[O-])c1 | 13.9%
79 | Cc1ccc(C(=O)NCC(c2cccs2)N(C)C)cc1S(=O)(=O)N1CCOCC1 (centres unmarked) | 11.2%
80 | CCn1c(O)c(/C=N/N2CCOCC2)c(=O)n(CC)c1=S | 4.76%
81 | COC(=O)c1ccccc1NC(=O)CSc1nnc(Cc2ccc(Cl)cc2)o1 | -0.104%
82 | Cc1ccc(-c2nc3cc(Cl)ccc3o2)cc1 | 10.4%
83 | CCN(CC)C(=O)c1cccc(NC(=O)CC23CC4CC(CC(C4)C2)C3)c1 | 7.57%
